Data reported in patent US20240301031A1 (JIANGSU HENGRUI PHARMACEUTICALS, published 2024).
Blank lines part the entries; values can stand above or below the binder they belong to.

Tests used:
[1] = molecular target: BAFF (R&D Systems, 7537-BF) (UniProt Q9Y275 partial chain); assay: cell-based or functional assay
[2] = molecular target: T1, BAFF (ACROBiosystems, BAF-H5248) (UniProt Q9Y275 partial chain); assay: ELISA, fusion protein coated, BAFF titrated, Anti-His-HRP
T1 construct: Bought protein used in the ELISA with coated test sample
Experimental: The binding activity of the TACI fusion proteins for BAFF and APRIL was assayed by the ELISA method (coating a test fusion protein sample). The specific procedures were as follows:
The test sample was diluted to 2 μg/mL with a PBS (BasalMedia, B320) buffer at pH 7.4 and added to a 96-well microplate (Corning, 3590) at 100 μL/well. The plate was incubated at 4° C. overnight. After the liquid was discarded, 300 μL of 5% skim milk (BD, 232100) diluted with PBS was added to each well for blocking, and the plate was incubated at 37° C. for 2 h. After the blocking was completed, the blocking solution was discarded, and the plate was washed 3 times with a PBST buffer (PBS at pH 7.4 containing 0.1% tween-20). 100 μL of BAFF (ACROBiosystems, BAF-H5248) or APRIL (R&D Systems, 5860-AP-010/CF) diluted in a gradient was added to each well, and the plate was incubated at 37° C. for 1 h. After the incubation, the plate was washed 3 times with PBST. When detecting the binding to BAFF, 100 μL of Anti-His-HRP (Sino biological, 105327-MM02T-H, diluted at a ratio of 1:2000) was added to each well; when detecting the binding to APRIL, 100 μL of anti-HA-HRP (Abcam, ab1190, diluted at a ratio of 1:4000) was added to each well. The plate was incubated at 37° C. for 1 h. The plate was washed 3 times with PBST. 100 μL of TMB chromogenic substrate (KPL, 5120-0077) was added to each well, and the plate was incubated at room temperature for 10-15 min. The reaction was stopped by adding 50 μL of 1 M H₂SO₄ to each well. The plate was read for absorbance values at 450 nm on a microplate reader, the binding curves of the antibodies to an antigen were fitted with software, and the EC₅₀ values were calculated.

[3] = molecular target: T2, human APRIL (5860-AP-010/CF, R&D Systems) (human, UniProt O75888 115-250, limits assumed); assay: cell-based or functional assay
T2 sequence (looked up): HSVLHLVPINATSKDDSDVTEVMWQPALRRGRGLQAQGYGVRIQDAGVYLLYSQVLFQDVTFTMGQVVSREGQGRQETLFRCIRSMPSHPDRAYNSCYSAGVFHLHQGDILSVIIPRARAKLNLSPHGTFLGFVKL

[4] = molecular target: T3, human BAFF (10056-HNCH, Sino biological) (human, UniProt Q9Y275 partial chain); assay: competition ELISA: biotin-labeled BAFF to coated BAFF-R
T3 construct: Bought protein
Experimental: The blocking activity of the antibodies and the fusion proteins for receptors and ligands such as BAFF/BAFF-R, BAFF/BCMA, BAFF/TACI, APRIL/BCMA, APRIL/TACI, and p40/IL-12R1 was assayed by the ELISA method. The specific procedures were as follows:
A receptor protein was diluted to 2 μg/mL with PBS at pH 7.4 (BasalMedia, B320) and added to a 96-well microplate (Corning, 3590) at 100 μL/well. The plate was incubated at 4° C. overnight. After the liquid was discarded, 200 μL of 1% Casein blocking solution (Thermo, 37528) was added to each well for blocking, and the plate was incubated at 37° C. for 2 h. After the blocking was completed, the blocking solution was discarded, and the plate was washed 3 times with a PBST buffer (PBS at pH 7.4 containing 0.1% tween-20) for later use. A biotin-labeled ligand protein at a fixed concentration was mixed with the antibody or fusion protein diluted in gradient, pre-incubated at 37° C. for 30 min, and added to a blocked microplate. The plate was incubated at 37° C. for 1.5 h. After the incubation was completed, the plate was washed 3 times with PBST. 100 μL of streptavidin-HRP (Invitrogen, 434323, diluted at a ratio of 1:4000) was added to each well, and the plate was incubated at 37° C. for 1 h. The supernatant was removed, and the plate was washed 3 times with PBST. 100 μL of TMB chromogenic substrate (KPL, 5120-0077) was added to each well, and the plate was incubated at room temperature for 10-15 min. The reaction was stopped by adding 50 μL of 1 M H₂SO₄ to each well. The plate was read for absorbance values at 450 nm on a microplate reader, the curves for the inhibition of the binding of the ligands to the receptors were fitted with software, and the IC₅₀ values were calculated.

EC50 [2]: 20.1 nM
IC50 [4]: 1.23 nM
B3: TACI-9-15Fc4 fusion protein (Fc fusion)
chain: [omitted - human IgG1 Fc]GGSSTSCREEQGEFYDHLLRDCISCASICGQHPKQCAAFCENK
notes: Full-length chain

EC50 [2]: 9.07 nM
IC50 [4]: 1.07 nM
B4: TACI-9-15Fc3 fusion protein (Fc fusion)
chain: STSCREEQGEFYDHLLRDCISCASICGQHPKQCAAFCE[omitted - human IgG1 Fc with changes]
notes: Full-length chain

The next lines start with the binder.

B1: TACI-9-15Fc2 fusion protein (Fc fusion)
chain: STSCREEQGEFYDHLLRDCISCASICGQHPKQCAAFCEN[omitted - human IgG1 Fc with changes]
notes: Full-length chain
IC50 (nM) for the inhibition of the BAFF-induced B cell proliferation [1]: 0.054 nM
EC50 [2]: 8.8 nM
IC50 (nM) for the inhibition of the APRIL-induced B cell proliferation [3]: 0.231 nM
IC50 [4]: 1.35 nM

B2: TACI-9-15Fc1 fusion protein (Fc fusion)
chain: STSCREEQGEFYDHLLRDCISCASICGQHPKQCAAFCENKL[omitted - human IgG1 Fc with changes]
notes: Full-length chain of TACI-9-15 or a truncated form, linker and Fc of human IgG
EC50 [2]: 7.02 nM
IC50 [4]: 2.62 nM
